# Results reported in the supplement of paper PMC8728848.
# The other results are listed elsewhere or left out.
# What was measured:
# Experiment in all cases: glycan array binding signal (z-score within array); higher = stronger binding
# Conditions in all cases: glycan notation: IUPAC condensed, linker removed
# [1] = target: Man(b1-4)GlcNAc
# How it was run: (§1)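 Arrays were curated from the Consortium for Functional Glycomics database, 3228 in total, and kept only where the protein sequence was available. Binding is expressed as a within-array Z-score. This score was averaged across arrays of the same protein sequence at different concentrations or buffers and across linkers, and negative values can be read as non-binding.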
# [2] = target: Neu5Ac(a2-3)Gal
# How it was run: as §1
# [3] = target: Neu5Ac(a2-3)Gal(b1-3)GalNAc
# How it was run: as §1
# [4] = target: Neu5Ac(a2-3)Gal(b1-3)GalNAc(b1-3)Gal(a1-4)Gal(b1-4)Glc
# How it was run: as §1
# [5] = target: Neu5Ac(a2-3)Gal(b1-3)GalNAc(b1-4)[Neu5Ac(a2-3)]Gal(b1-4)Glc
# How it was run: as §1
# [6] = target: Neu5Ac(a2-3)Gal(b1-3)GalNAc6S
# How it was run: as §1
# [7] = target: Neu5Ac(a2-3)Gal(b1-3)GlcNAc
# How it was run: as §1
# [8] = target: Neu5Ac(a2-3)Gal(b1-3)GlcNAc(b1-2)Man(a1-3)[Neu5Ac(a2-3)Gal(b1-3)GlcNAc(b1-2)Man(a1-6)]Man(b1-4)GlcNAc(b1-4)GlcNAc
# How it was run: as §1
# [9] = target: Neu5Ac(a2-3)Gal(b1-3)GlcNAc(b1-3)Gal(b1-3)GlcNAc
# How it was run: as §1
# [10] = target: Neu5Ac(a2-3)Gal(b1-3)GlcNAc(b1-3)Gal(b1-4)GlcNAc
# How it was run: as §1
# [11] = target: Neu5Ac(a2-3)Gal(b1-3)GlcNAc(b1-3)GalNAc
# How it was run: as §1
# [12] = target: Neu5Ac(a2-3)Gal(b1-3)GlcNAc6S
# How it was run: as §1
# [13] = target: Neu5Ac(a2-3)Gal(b1-3)[Fuc(a1-4)]GlcNAc
# How it was run: as §1
# [14] = target: Neu5Ac(a2-3)Gal(b1-3)[Fuc(a1-4)]GlcNAc(b1-3)Gal(b1-3)[Fuc(a1-4)]GlcNAc
# How it was run: as §1
# [15] = target: Neu5Ac(a2-3)Gal(b1-3)[Fuc(a1-4)]GlcNAc(b1-3)Gal(b1-4)[Fuc(a1-3)]GlcNAc
# How it was run: as §1
# [16] = target: Neu5Ac(a2-3)Gal(b1-3)[Neu5Ac(a2-3)Gal(b1-4)]GlcNAc
# How it was run: as §1
# [17] = target: Neu5Ac(a2-3)Gal(b1-3)[Neu5Ac(a2-6)]GalNAc
# How it was run: as §1
# [18] = target: Neu5Ac(a2-3)Gal(b1-4)Glc
# How it was run: as §1
# [19] = target: Neu5Ac(a2-3)Gal(b1-4)GlcNAc
# How it was run: as §1
# [20] = target: Neu5Ac(a2-3)Gal(b1-4)GlcNAc(b1-2)Man(a1-3)[GlcNAc(b1-2)Man(b1-4)GlcNAc(b1-2)Man(a1-6)]Man(b1-4)GlcNAc(b1-4)GlcNAc
# How it was run: as §1
# [21] = target: Neu5Ac(a2-3)Gal(b1-4)GlcNAc(b1-2)Man(a1-3)[Neu5Ac(a2-6)Gal(b1-4)GlcNAc(b1-2)Man(a1-6)]Man(b1-4)GlcNAc(b1-4)GlcNAc
# How it was run: as §1
# [22] = target: Neu5Ac(a2-3)Gal(b1-4)GlcNAc(b1-3)Gal(b1-3)GlcNAc
# How it was run: as §1
# [23] = target: Neu5Ac(a2-3)Gal(b1-4)GlcNAc(b1-3)Gal(b1-4)GlcNAc
# How it was run: as §1
# [24] = target: Neu5Ac(a2-3)Gal(b1-4)GlcNAc(b1-3)Gal(b1-4)GlcNAc(b1-3)Gal(b1-4)GlcNAc
# How it was run: as §1
# [25] = target: Neu5Ac(a2-3)Gal(b1-4)GlcNAc(b1-3)Gal(b1-4)[Fuc(a1-3)]GlcNAc
# How it was run: as §1
# [26] = target: Neu5Ac(a2-3)Gal(b1-4)GlcNAc(b1-3)GalNAc
# How it was run: as §1
# [27] = target: Neu5Ac(a2-3)Gal(b1-4)GlcNAc(b1-6)[Gal(b1-3)]GalNAc
# How it was run: as §1
# [28] = target: Neu5Ac(a2-3)Gal(b1-4)GlcNAc(b1-6)[Neu5Ac(a2-3)Gal(b1-3)]GalNAc
# How it was run: as §1
# [29] = target: Neu5Ac(a2-3)Gal(b1-4)GlcNAc6S
# How it was run: as §1
# [30] = target: Neu5Ac(a2-3)Gal(b1-4)[Fuc(a1-3)]GlcNAc
# How it was run: as §1
# [31] = target: Neu5Ac(a2-3)Gal(b1-4)[Fuc(a1-3)]GlcNAc(b1-3)Gal
# How it was run: as §1
# [32] = target: Neu5Ac(a2-3)Gal(b1-4)[Fuc(a1-3)]GlcNAc(b1-3)Gal(b1-4)GlcNAc
# How it was run: as §1
# [33] = target: Neu5Ac(a2-3)Gal(b1-4)[Fuc(a1-3)]GlcNAc(b1-3)Gal(b1-4)[Fuc(a1-3)]GlcNAc(b1-3)Gal(b1-4)[Fuc(a1-3)]GlcNAc
# How it was run: as §1
# [34] = target: Neu5Ac(a2-3)Gal(b1-4)[Fuc(a1-3)]GlcNAc(b1-3)GalNAc
# How it was run: as §1
# [35] = target: Neu5Ac(a2-3)Gal(b1-4)[Fuc(a1-3)]GlcNAc(b1-6)[Gal(b1-3)]GalNAc
# How it was run: as §1
# [36] = target: Neu5Ac(a2-3)Gal(b1-4)[Fuc(a1-3)]GlcNAc(b1-6)[Neu5Ac(a2-3)Gal(b1-3)]GalNAc
# How it was run: as §1
# [37] = target: Neu5Ac(a2-3)Gal(b1-4)[Fuc(a1-3)]GlcNAc6S
# How it was run: as §1
# [38] = target: Neu5Ac(a2-3)Gal6S(b1-4)GlcNAc
# How it was run: as §1
binder,measurement,setting,value
"SLP (Clostridium difficile), Q183M8 (protein) MATTGTQGYTVVKNDWKKAVKQLQDGLKDNSIGKITVSFNDGVVGEVAPKSANKKADRDAAAEKLYNLVNTQLDKLGDGDYVDFSVDYNLENKIITNQADAEAIVTKLNSLNEKTLIDIATKDTFGMVSKTQDSEGKNVAATKALKVKDVATFGLKSGGSEDTGYVVEMKAGAVEDKYGKVGDSTAGIAINLPSTGLEYAGKGTTIDFNKTLKVDVTGGSTPSAVAVSGFVTKDDTDLAKSGTINVRVINAKEESIDIDASSYTSAENLAKRYVFDPDEISEAYKAIVALQNDGIESNLVQLVNGKYQVIFYPEGKRLETKSLEHHHHHH",glycan array binding signal (z-score),[1],-0.179
same,glycan array binding signal (z-score),[2],-0.169
same,glycan array binding signal (z-score),[3],-0.163
same,glycan array binding signal (z-score),[4],-0.149
same,glycan array binding signal (z-score),[5],-0.189
same,glycan array binding signal (z-score),[6],-0.139
same,glycan array binding signal (z-score),[7],-0.182
same,glycan array binding signal (z-score),[8],-0.149
same,glycan array binding signal (z-score),[9],-0.182
same,glycan array binding signal (z-score),[10],-0.195
same,glycan array binding signal (z-score),[11],-0.154
same,glycan array binding signal (z-score),[12],-0.167
same,glycan array binding signal (z-score),[13],-0.191
same,glycan array binding signal (z-score),[14],-0.094
same,glycan array binding signal (z-score),[15],-0.057
same,glycan array binding signal (z-score),[16],-0.184
same,glycan array binding signal (z-score),[17],0.043
same,glycan array binding signal (z-score),[18],-0.164
same,glycan array binding signal (z-score),[19],-0.195
same,glycan array binding signal (z-score),[20],-0.182
same,glycan array binding signal (z-score),[21],-0.202
same,glycan array binding signal (z-score),[22],-0.189
same,glycan array binding signal (z-score),[23],-0.18
same,glycan array binding signal (z-score),[24],-0.192
same,glycan array binding signal (z-score),[25],-0.159
same,glycan array binding signal (z-score),[26],-0.143
same,glycan array binding signal (z-score),[27],-0.178
same,glycan array binding signal (z-score),[28],-0.195
same,glycan array binding signal (z-score),[29],-0.167
same,glycan array binding signal (z-score),[30],-0.177
same,glycan array binding signal (z-score),[31],-0.195
same,glycan array binding signal (z-score),[32],-0.03
same,glycan array binding signal (z-score),[33],-0.148
same,glycan array binding signal (z-score),[34],0.228
same,glycan array binding signal (z-score),[35],-0.101
same,glycan array binding signal (z-score),[36],-0.014
same,glycan array binding signal (z-score),[37],-0.21
same,glycan array binding signal (z-score),[38],-0.165
